# Experimental data reported in the supplement of paper PMC8728848.
# The list shows a part of the results.
# Experiments:
# Assay in all cases: glycan array binding signal (z-score within array); higher = stronger binding
# Details in all cases: glycan notation: IUPAC condensed, linker removed
# [1] = target: GlcNAc(a1-4)Gal(b1-4)GalNAc
# Procedure, shortened: (§1)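 Arrays were curated from the Consortium for Functional Glycomics database, 3228 in total, and kept only where the protein sequence was available. Binding is expressed as a within-array Z-score. This score was averaged across arrays of the same protein sequence at different concentrations or buffers and across linkers, and negative values can be read as non-binding.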
# [2] = target: GlcNAc(a1-4)Gal(b1-4)GlcNAc
# Procedure, shortened: as §1
# [3] = target: GlcNAc(a1-4)Gal(b1-4)GlcNAc(b1-3)Gal(b1-4)Glc
# Procedure, shortened: as §1
# [4] = target: GlcNAc(a1-4)Gal(b1-4)GlcNAc(b1-3)Gal(b1-4)GlcNAc
# Procedure, shortened: as §1
# [5] = target: GlcNAc(a1-4)Gal(b1-4)GlcNAc(b1-3)Gal(b1-4)GlcNAc(b1-3)Gal(b1-4)GlcNAc
# Procedure, shortened: as §1
# [6] = target: GlcNAc(a1-4)Gal(b1-4)GlcNAc(b1-3)Gal(b1-4)[Fuc(a1-3)]GlcNAc(b1-3)Gal(b1-4)[Fuc(a1-3)]GlcNAc
# Procedure, shortened: as §1
# [7] = target: GlcNAc(a1-6)Gal(b1-4)GlcNAc
# Procedure, shortened: as §1
# [8] = target: GlcNAc(b1-2)Gal(b1-3)GalNAc
# Procedure, shortened: as §1
# [9] = target: GlcNAc(b1-2)Man(a1-3)[GlcNAc(b1-2)Man(a1-6)]Man(b1-4)GlcNAc(b1-4)GlcNAc
# Procedure, shortened: as §1
# [10] = target: GlcNAc(b1-2)Man(a1-3)[GlcNAc(b1-2)Man(a1-6)]Man(b1-4)GlcNAc(b1-4)[Fuc(a1-6)]GlcNAc
# Procedure, shortened: as §1
# [11] = target: GlcNAc(b1-2)Man(a1-3)[GlcNAc(b1-4)][GlcNAc(b1-2)Man(a1-6)]Man(b1-4)GlcNAc(b1-4)GlcNAc
# Procedure, shortened: as §1
# [12] = target: GlcNAc(b1-2)Man(a1-3)[GlcNAc(b1-4)][GlcNAc(b1-2)Man(a1-6)]Man(b1-4)GlcNAc(b1-4)[Fuc(a1-6)]GlcNAc
# Procedure, shortened: as §1
# [13] = target: GlcNAc(b1-2)[GlcNAc(b1-4)]Man(a1-3)[GlcNAc(b1-2)Man(a1-6)]Man(b1-4)GlcNAc(b1-4)GlcNAc
# Procedure, shortened: as §1
# [14] = target: GlcNAc(b1-2)[GlcNAc(b1-4)]Man(a1-3)[GlcNAc(b1-4)][GlcNAc(b1-2)Man(a1-6)]Man(b1-4)GlcNAc(b1-4)GlcNAc
# Procedure, shortened: as §1
# [15] = target: GlcNAc(b1-2)[GlcNAc(b1-4)]Man(a1-3)[GlcNAc(b1-4)][GlcNAc(b1-2)[GlcNAc(b1-6)]Man(a1-6)]Man(b1-4)GlcNAc(b1-4)GlcNAc
# Procedure, shortened: as §1
# [16] = target: GlcNAc(b1-2)[GlcNAc(b1-4)]Man(a1-3)[GlcNAc(b1-4)][GlcNAc(b1-2)[GlcNAc(b1-6)]Man(a1-6)]Man(b1-4)GlcNAc(b1-4)[Fuc(a1-6)]GlcNAc
# Procedure, shortened: as §1
# [17] = target: GlcNAc(b1-2)[GlcNAc(b1-6)]Man(a1-6)[GlcNAc(b1-2)Man(a1-3)]Man(b1-4)GlcNAc(b1-4)GlcNAc
# Procedure, shortened: as §1
# [18] = target: GlcNAc(b1-2)[GlcNAc(b1-6)]Man(a1-6)[GlcNAc(b1-2)Man(a1-3)]Man(b1-4)GlcNAc(b1-4)[Fuc(a1-6)]GlcNAc
# Procedure, shortened: as §1
# [19] = target: GlcNAc(b1-2)[GlcNAc(b1-6)]Man(a1-6)[GlcNAc(b1-4)][GlcNAc(b1-2)Man(a1-3)]Man(b1-4)GlcNAc(b1-4)GlcNAc
# Procedure, shortened: as §1
# GlcNAc(b1-3)Fuc = target: GlcNAc(b1-3)Fuc
# Procedure, shortened: as §1
# GlcNAc(b1-3)Gal = target: GlcNAc(b1-3)Gal
# Procedure, shortened: as §1
# [20] = target: GlcNAc(b1-3)Gal(b1-3)GalNAc
# Procedure, shortened: as §1
# GlcNAc(b1-3)Gal(b1-4)Glc = target: GlcNAc(b1-3)Gal(b1-4)Glc
# Procedure, shortened: as §1
# [21] = target: GlcNAc(b1-3)Gal(b1-4)GlcNAc
# Procedure, shortened: as §1
# [22] = target: GlcNAc(b1-3)Gal(b1-4)GlcNAc(b1-2)Man(a1-3)[GlcNAc(b1-3)Gal(b1-4)GlcNAc(b1-2)Man(a1-6)]Man(b1-4)GlcNAc(b1-4)GlcNAc
# Procedure, shortened: as §1
# [23] = target: GlcNAc(b1-3)Gal(b1-4)GlcNAc(b1-2)Man(a1-3)[GlcNAc(b1-3)Gal(b1-4)GlcNAc(b1-2)Man(a1-6)]Man(b1-4)GlcNAc(b1-4)[Fuc(a1-6)]GlcNAc
# Procedure, shortened: as §1
# [24] = target: GlcNAc(b1-3)Gal(b1-4)GlcNAc(b1-2)[GlcNAc(b1-3)Gal(b1-4)GlcNAc(b1-6)]Man(a1-6)[GlcNAc(b1-3)Gal(b1-4)GlcNAc(b1-2)Man(a1-3)]Man(b1-4)GlcNAc(b1-4)GlcNAc
# Procedure, shortened: as §1
# [25] = target: GlcNAc(b1-3)Gal(b1-4)GlcNAc(b1-3)Gal(b1-4)GlcNAc
# Procedure, shortened: as §1
# [26] = target: GlcNAc(b1-3)Gal(b1-4)GlcNAc(b1-3)Gal(b1-4)GlcNAc(b1-2)Man(a1-3)[GlcNAc(b1-3)Gal(b1-4)GlcNAc(b1-3)Gal(b1-4)GlcNAc(b1-2)Man(a1-6)]Man(b1-4)GlcNAc(b1-4)GlcNAc
# Procedure, shortened: as §1
# [27] = target: GlcNAc(b1-3)Gal(b1-4)GlcNAc(b1-3)Gal(b1-4)GlcNAc(b1-2)Man(a1-3)[GlcNAc(b1-3)Gal(b1-4)GlcNAc(b1-3)Gal(b1-4)GlcNAc(b1-2)Man(a1-6)]Man(b1-4)GlcNAc(b1-4)[Fuc(a1-6)]GlcNAc
# Procedure, shortened: as §1
# [28] = target: GlcNAc(b1-3)Gal(b1-4)GlcNAc(b1-3)Gal(b1-4)GlcNAc(b1-2)[GlcNAc(b1-3)Gal(b1-4)GlcNAc(b1-3)Gal(b1-4)GlcNAc(b1-6)]Man(a1-6)[GlcNAc(b1-3)Gal(b1-4)GlcNAc(b1-3)Gal(b1-4)GlcNAc(b1-2)Man(a1-3)]Man(b1-4)GlcNAc(b1-4)[Fuc(a1-6)]GlcNAc
# Procedure, shortened: as §1
# [29] = target: GlcNAc(b1-3)Gal(b1-4)GlcNAc(b1-3)Gal(b1-4)GlcNAc(b1-3)Gal(b1-4)GlcNAc(b1-2)Man(a1-3)[GlcNAc(b1-3)Gal(b1-4)GlcNAc(b1-3)Gal(b1-4)GlcNAc(b1-3)Gal(b1-4)GlcNAc(b1-2)Man(a1-6)]Man(b1-4)GlcNAc(b1-4)GlcNAc
# Procedure, shortened: as §1
# [30] = target: GlcNAc(b1-3)Gal(b1-4)GlcNAc(b1-3)Gal(b1-4)GlcNAc(b1-3)Gal(b1-4)GlcNAc(b1-2)Man(a1-3)[GlcNAc(b1-3)Gal(b1-4)GlcNAc(b1-3)Gal(b1-4)GlcNAc(b1-3)Gal(b1-4)GlcNAc(b1-2)Man(a1-6)]Man(b1-4)GlcNAc(b1-4)[Fuc(a1-6)]GlcNAc
# Procedure, shortened: as §1
# [31] = target: GlcNAc(b1-3)Gal(b1-4)GlcNAc(b1-3)Gal(b1-4)GlcNAc(b1-3)Gal(b1-4)GlcNAc(b1-2)[GlcNAc(b1-3)Gal(b1-4)GlcNAc(b1-3)Gal(b1-4)GlcNAc(b1-3)Gal(b1-4)GlcNAc(b1-6)]Man(a1-6)[GlcNAc(b1-3)Gal(b1-4)GlcNAc(b1-3)Gal(b1-4)GlcNAc(b1-3)Gal(b1-4)GlcNAc(b1-2)Man(a1-3)]Man(b1-4)GlcNAc(b1-4)[Fuc(a1-6)]GlcNAc
# Procedure, shortened: as §1
# [32] = target: GlcNAc(b1-3)Gal(b1-4)GlcNAc(b1-3)Gal(b1-4)GlcNAc(b1-3)Gal(b1-4)GlcNAc(b1-3)Gal(b1-4)GlcNAc(b1-2)Man(a1-3)[GlcNAc(b1-3)Gal(b1-4)GlcNAc(b1-3)Gal(b1-4)GlcNAc(b1-3)Gal(b1-4)GlcNAc(b1-3)Gal(b1-4)GlcNAc(b1-2)Man(a1-6)]Man(b1-4)GlcNAc(b1-4)GlcNAc
# Procedure, shortened: as §1
# [33] = target: GlcNAc(b1-3)Gal(b1-4)GlcNAc(b1-3)Gal(b1-4)GlcNAc(b1-3)Gal(b1-4)GlcNAc(b1-3)Gal(b1-4)GlcNAc(b1-2)Man(a1-3)[GlcNAc(b1-3)Gal(b1-4)GlcNAc(b1-3)Gal(b1-4)GlcNAc(b1-3)Gal(b1-4)GlcNAc(b1-3)Gal(b1-4)GlcNAc(b1-2)Man(a1-6)]Man(b1-4)GlcNAc(b1-4)[Fuc(a1-6)]GlcNAc
# Procedure, shortened: as §1
# [34] = target: GlcNAc(b1-3)Gal(b1-4)GlcNAc(b1-3)Gal(b1-4)GlcNAc(b1-3)Gal(b1-4)GlcNAc(b1-3)Gal(b1-4)GlcNAc(b1-2)[GlcNAc(b1-3)Gal(b1-4)GlcNAc(b1-3)Gal(b1-4)GlcNAc(b1-3)Gal(b1-4)GlcNAc(b1-3)Gal(b1-4)GlcNAc(b1-6)]Man(a1-6)[GlcNAc(b1-3)Gal(b1-4)GlcNAc(b1-3)Gal(b1-4)GlcNAc(b1-3)Gal(b1-4)GlcNAc(b1-3)Gal(b1-4)GlcNAc(b1-2)Man(a1-3)]Man(b1-4)GlcNAc(b1-4)[Fuc(a1-6)]GlcNAc
# Procedure, shortened: as §1
# [35] = target: GlcNAc(b1-3)Gal(b1-4)GlcNAc(b1-3)Gal(b1-4)GlcNAc(b1-3)GalNAc
# Procedure, shortened: as §1
binder,measurement,setting,value
ACA (Amaranthus caudatus) (protein) MAGLPVIMCLKSNNNQKYLRYQSDNIQQYGLLQFSADKILDPLAQFEVEPSKTYDGLVHIKSRYTNKYLVRWSPNHYWITASANEPDENKSNWACTLFKPLYVEEGNMKKVRLLHVQLGHYTQNYTVGGSFVSYLFAESSQIDTGSKDVFHVIDWKSIFQFPKRYVTFKGNNGKYLGVITINQLPCLQFGYDNLNDPKVAHEMFVTSNGTICIKSTYMNKFWRLSTDDWILVDGNDPRETNEAAALFRSDVHDFNVISLLNMQKTWFIKRFTSGKPGFINCMNAATQNVDETAILEIIELGSNN,glycan array binding signal (z-score),[1],-0.368
same,glycan array binding signal (z-score),[2],-0.175
same,glycan array binding signal (z-score),[3],-0.162
same,glycan array binding signal (z-score),[4],-0.777
same,glycan array binding signal (z-score),[5],-0.532
same,glycan array binding signal (z-score),[6],0.105
same,glycan array binding signal (z-score),[7],-0.176
same,glycan array binding signal (z-score),[8],-0.621
same,glycan array binding signal (z-score),[9],-0.256
same,glycan array binding signal (z-score),[10],0.223
same,glycan array binding signal (z-score),[11],-0.893
same,glycan array binding signal (z-score),[12],-0.458
same,glycan array binding signal (z-score),[13],-0.445
same,glycan array binding signal (z-score),[14],-0.545
same,glycan array binding signal (z-score),[15],-0.641
same,glycan array binding signal (z-score),[16],-0.327
same,glycan array binding signal (z-score),[17],-0.128
same,glycan array binding signal (z-score),[18],-0.087
same,glycan array binding signal (z-score),[19],-0.472
same,glycan array binding signal (z-score),GlcNAc(b1-3)Fuc,0.07
same,glycan array binding signal (z-score),GlcNAc(b1-3)Gal,0.094
same,glycan array binding signal (z-score),[20],-0.143
same,glycan array binding signal (z-score),GlcNAc(b1-3)Gal(b1-4)Glc,-0.224
same,glycan array binding signal (z-score),[21],-0.352
same,glycan array binding signal (z-score),[22],-0.384
same,glycan array binding signal (z-score),[23],-0.023
same,glycan array binding signal (z-score),[24],0.85
same,glycan array binding signal (z-score),[25],-0.26
same,glycan array binding signal (z-score),[26],3.43
same,glycan array binding signal (z-score),[27],1.65
same,glycan array binding signal (z-score),[28],0.359
same,glycan array binding signal (z-score),[29],-0.352
same,glycan array binding signal (z-score),[30],1.19
same,glycan array binding signal (z-score),[31],0.586
same,glycan array binding signal (z-score),[32],-0.188
same,glycan array binding signal (z-score),[33],0.213
same,glycan array binding signal (z-score),[34],0.536
same,glycan array binding signal (z-score),[35],0.03
